Data: the supplement of paper PMC12632987
The full ranking holds about 1,800 sequences; the median of “median log2 fold change of GCK-ALFA target abundance (FLAG IP / Myc IP barcode read proportion)” is about 0.14, and the lowest 2% start at about -0.84. Some of the results follow.

T1: TRAF2, Q12933
T1 chain: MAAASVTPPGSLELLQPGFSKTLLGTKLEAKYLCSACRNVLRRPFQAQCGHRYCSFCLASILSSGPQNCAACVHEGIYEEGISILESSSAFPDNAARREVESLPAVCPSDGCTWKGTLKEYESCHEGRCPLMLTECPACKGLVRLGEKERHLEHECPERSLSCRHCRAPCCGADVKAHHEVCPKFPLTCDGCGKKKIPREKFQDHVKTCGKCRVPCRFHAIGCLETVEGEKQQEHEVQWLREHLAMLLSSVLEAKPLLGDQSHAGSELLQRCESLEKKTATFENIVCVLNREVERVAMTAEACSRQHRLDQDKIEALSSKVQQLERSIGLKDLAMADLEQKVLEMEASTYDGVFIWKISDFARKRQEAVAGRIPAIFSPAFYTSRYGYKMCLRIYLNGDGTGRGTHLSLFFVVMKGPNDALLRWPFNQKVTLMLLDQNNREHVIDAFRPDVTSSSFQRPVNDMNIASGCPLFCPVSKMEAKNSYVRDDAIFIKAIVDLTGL

B1: traf2_out_15_48_1336 (protein)
chain: MTEALQKAAREFNERADKAREEVAKTLKELLPKVNPELQKKVEELLKLVESGAPLRDIRARLKELQKEANPEVQKELDKQIEKIDEVLREGSKRFNEVLK
B2: traf2_out_13_95_1074 (protein)
chain: SLELAKKIMEIADKAEEEMLKLLKKAAEELKDNPEAVKVLEEAAKLAETKGWSAAIHLLKEAAKADPENKEKFEALIKELEAIRTKAGKEVAKLIKEAEE
B3: traf2_out_12_187_948 (protein)
chain: SVEEELLEAAKAGAKAALKALAAAGADDPRLQELRKLLKEAEKALKKNPSIASDLLVAASLVRRAVRLLEDGADPEEVEAALEEARRELEEVLKEAKKLE
B4: traf2_out_11_155_737 (protein)
chain: EEKQKLIQEMNDKIMDLFEEAREKALEIAEEAAKAHPEHKEAIEKKIEESKGLSYRSFIRSMIELFKELGLEEYAKKLEELLEETQKKASKIVIETEKKL
B5: traf2_out_13_95_1053 (protein)
chain: SEETAKKIMEVADKMEEEALALLERAQAEVADDPEAKAVMDEALRLARTRGISEAIHLLREAQAADPAHKARFAALIAELEALRREAGRKVAEILKEEKE
B6: traf2_out_11_155_736 (protein)
chain: EEKQKLIQEMNDKIMELFEKAKEEALKIVEEAAKKHPEHKEKLEAKIEETKGLSYRSFILQLIRLFKELGLEEYAKKLEELLEKTQKEASKIVIETEKKL
B7: traf2_out_11_169_889 (protein)
chain: AEAEKNRKIIDKALELNDKAREELRAYALALAREAGLDVAAVEAIFAANAGKSLSAVAAALIAHFRAQGAEAAAAAVEAKHEELKEKINKEMTEFIKSLE
B8: traf2_out_17_162_1510 (protein)
chain: SPVEALEARFRAELAALREELERLKKKTENLEKMSKEEITDLLVEASEARRRARALAEEVARHASLLGEERAAALRAEAEAIAEELQRIANKAYKELEKK
B9: traf2_out_17_162_1617 (protein)
chain: MSIEEKLKKLKEELEKLKKELEELKKKLENIDKLSKEELTDLLVEASEAKRKARQAIVELEKLKGEIDKKTYEELKKEFEKLAEEFQKLANKFYKKLEEL
B10: traf2_out_6_156_2378 (protein)
chain: MKEKILEEAKKEIKELIKKLAEASEEKKIKYISRIAGAVYRALQKLREAGASVEEIKEAVEELKETAEKEAKKAGLPQDTIDLLLSSINAVGEVALREAE
B11: traf2_out_18_76_1958 (protein)
chain: HMTPEERLAELEAKIEEVRERYQRVATRALKLLPKLSPEDRSKVMDLLADASEALRKAELALEEAKRTGKLEEKEKEINEQLKKAEEKIEELEKLVEELE
B12: traf2_out_20_3_2239 (protein)
chain: SELEEELERELERARRLLEELAPLLPAEDAARLRALLEEAERLYKTDYTDALVALSELRRAALELAERARAAGDEETAARLEELADEVGRAMQLVYKIIE
B13: traf2_out_5_63_2363 (protein)
chain: SEREELTALAREADKLVRELLEAAKAGDEAKVEALIARAVADPELARLVLGILKGEAKYYELLGDKPEEAKIAKELAERLEAARAAAAAARAAAAAAAAA
B14: traf2_out_17_178_1719 (protein)
chain: SKEEYRKKISELTDKLIDLSEEAAEKLLELAEKEGKLTPEELAALREARRRGSNNDVLALGEKIAPKLSSKEEAEKLIEEFKKKSKELSKKIAEAYEKYE
B15: traf2_out_8_15_2559 (protein)
chain: SLEEAAKKDLEKLKAASDGDEKTFVNFVIGFAKGELRLAKIYLEEGNKELARKTLEYAKALMEEALKYLKEKKSKYLPTLEKAAEELKKEAEKIEKEIKK
B16: traf2_out_17_60_1762 (protein)
chain: SAEEEAERLKEEARRAIEEAEELVERVDKKLEAGTLTADEAMDYLVELSERRRRLEALREKLKAKGPEFAPLVEEIERAIERIRRTMNRVGKKLEELLAA
B17: traf2_out_6_156_2438 (protein)
chain: SVEEILAATKAELKELIKALAKASEERKIFYINRIAGTVYRGLQALRDGGASLEELRAFAEELKAFLKEAADAAGLDEDTKNLLLSSMNAVFDVALASAA
B18: traf2_out_17_178_1702 (protein)
chain: SKEEIRKKISELTDELIDLSEEYGRRLLALARAEGVLSPEELAALEAALASGSNRTLLATARELLPRSAASPELLALLAEFEEEYRRISKKIAEAYEKYE
B19: traf2_out_5_189_2329 (protein)
chain: SSAEEERKELTEKAKELAERARKLIKELLEKGKSHEEIKEELLKELEKLSIEDAQLYLGIAYAILLNIADVNNDEELREAAKELREEGLKLIEERRKEEA
B20: traf2_out_20_3_2144 (protein)
chain: EELEKELEKELEEALKILKEASKKADPETAKKLDALAKELEASKSLSYSDQLVVVSKVRREVLLLSQQAKAAGDEELAKLLEEAADELNEAANLLMKIIE
B21: traf2_out_11_169_843 (protein)
chain: AEREKNRAINDHALELNDKAKEELKEFAKKLAKEAGLDVEEIDKIFEKNKGKSFSYIAGSLIDYFTSKGKEDAAKKVLEKYEELKEKINKESTAFIKSLE
B22: traf2_out_20_3_2053 (protein)
chain: EELEKEAEKEFKKLKAKLEEIKKLVDPETAAKLEAALAEVEEAKKKGYEEALIATSKLRRLLLELAEEARKEGKEEVAKLLEEAAEYAQKLMNIIYKIIE
B23: traf2_out_1_156_900 (protein)
chain: SASDEQYEKLKKKLHQPEYSALLRRAAGALADIVDLLEEAKAAGAPEEVLERLEELRREAERLLSQLVSDPNLTLEEARRLAEEIEELRREAEELVREWR
B24: traf2_out_15_180_1333 (protein)
chain: HMSEEEKKMIEVANEIVDKSEEKAKELAEKRGLDLATVLAISRQITSAAQRELGLGDFDQAKEDIAQIIAQVPEEYREAVTELAEYILKLVKEKYEELKK
B25: traf2_out_6_166_2473 (protein)
chain: DAEIRARIREVVKEFSKYSPEDIIEAFEKVAKERSDHRALMARQLASGVRQGQKAGLPVETIISAFADGMLALGVPPEDILALLEEILEEVKKIVAEKKA
B26: traf2_out_1_33_1032 (protein)
chain: SEAKERRTLRIANEAASRLYKVIREQLERIRALLAAGASLEEIEAAAEEARKEVEEKAEEILEEVEKTEDEETVNLVKSVLTSLKVIFDRELAELLAEAR
B27: traf2_out_11_104_637 (protein)
chain: LTREQAREFNDFAMAQEDQARAIAAALAAELAAAGETAAAARVNAALADSGAGISTFRNLLEDLLPELSPAAAAAAEAAIAELRALQKKVSDKLNELEKK
B28: traf2_out_20_3_2205 (protein)
chain: SELEEELEKELEEALKLLKEAAKLADEETKKRLEELIKRLKESRELSYDDRLVELSEIRAEVLRLAQEAKAKGNEELAKVLEEAAEALQRAMNLVYKIIE
B29: traf2_out_11_155_689 (protein)
chain: SKERELNNELVDETLAVGERLKAEIDAIAAEAAAAHPEHAERIAAVRAESARFSERTYAGRMAALFRELGLDEEAARVEALLARAQKEKNEILKRIEAKL

Target: T1, TRAF2, Q12933
Assay: median log2 fold change of GCK-ALFA target abundance (FLAG IP / Myc IP barcode read proportion) (log2 ratio); each designed protein is fused to an ALFA-tag nanobody in HEK293 cells to bring the named protein to FLAG-tagged glucokinase (GCK); Myc marks an untargeted standard; higher = target protein stabilised (more abundant)
Conditions: target protein: 3xFLAG-MCP-GCK-ALFA reporter; HEK293 landing pad (RPLP)
Procedure, shortened: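 Binders fused to an ALFA nanobody were recombined as a library into HEK293 landing-pad cells, which were induced with 2 μg mL^−1 doxycycline and then transfected to express a FLAG-tagged target and a Myc-tagged standard. After 48 h, circular RNA barcodes recovered by anti-FLAG and anti-Myc immunoprecipitation of lysates were reverse transcribed, amplified and sequenced. Each binder's target abundance is the median log2 ratio of FLAG to Myc barcode read proportions, from barcodes present at ≥10^−7 in both replicates, binders carrying ≥3 barcodes per replicate, a 10^−6 pseudocount and pooled replicates.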

| Binder | median log2 fold change |
| --- | --- |
| B1 | -0.0278 |
| B2 | -0.3 |
| B3 | 0.215 |
| B4 | -0.0235 |
| B5 | 0.192 |
| B6 | 0.079 |
| B7 | 0.371 |
| B8 | 0.111 |
| B9 | 0.106 |
| B10 | 0.148 |
| B11 | -0.505 |
| B12 | 0.263 |
| B13 | -0.28 |
| B14 | 0.405 |
| B15 | -0.0917 |
| B16 | 0.153 |
| B17 | -0.0848 |
| B18 | 0.188 |
| B19 | 0.322 |
| B20 | 0.301 |
| B21 | 0.0832 |
| B22 | 0.328 |
| B23 | -0.0243 |
| B24 | 0.451 |
| B25 | 0.1 |
| B26 | -0.138 |
| B27 | 0.379 |
| B28 | 0.339 |
| B29 | -0.332 |
